Hit rate of the full screen: of about 45,000 compounds, about 65 (0.1%) were called active. Calls come from the whole dose curve; as a rule, active = well fitted activation curve with a large enough effect; inconclusive = small, poorly fitted or top-dose-only effect; inactive = no such curve, though single readings can be large or run the other way. This is one part of the list.
The compounds below were run against Galactocerebrosidase (Homo sapiens) (UniProt P54803) (assay: A Novel Cell-Based Assay to Identify Small Molecules for B -Galactocerebrosidase). Settings: 145M-Twi-hGALC-G270D cells (Twitcher mouse brain line with human GALC G270D), HMU-beta-Gal fluorescence, 48 h; series mostly up to 57.5 µM; activation: at the top concentration.
Chain of UniProt P54803 (P54803 whole entry, looked up): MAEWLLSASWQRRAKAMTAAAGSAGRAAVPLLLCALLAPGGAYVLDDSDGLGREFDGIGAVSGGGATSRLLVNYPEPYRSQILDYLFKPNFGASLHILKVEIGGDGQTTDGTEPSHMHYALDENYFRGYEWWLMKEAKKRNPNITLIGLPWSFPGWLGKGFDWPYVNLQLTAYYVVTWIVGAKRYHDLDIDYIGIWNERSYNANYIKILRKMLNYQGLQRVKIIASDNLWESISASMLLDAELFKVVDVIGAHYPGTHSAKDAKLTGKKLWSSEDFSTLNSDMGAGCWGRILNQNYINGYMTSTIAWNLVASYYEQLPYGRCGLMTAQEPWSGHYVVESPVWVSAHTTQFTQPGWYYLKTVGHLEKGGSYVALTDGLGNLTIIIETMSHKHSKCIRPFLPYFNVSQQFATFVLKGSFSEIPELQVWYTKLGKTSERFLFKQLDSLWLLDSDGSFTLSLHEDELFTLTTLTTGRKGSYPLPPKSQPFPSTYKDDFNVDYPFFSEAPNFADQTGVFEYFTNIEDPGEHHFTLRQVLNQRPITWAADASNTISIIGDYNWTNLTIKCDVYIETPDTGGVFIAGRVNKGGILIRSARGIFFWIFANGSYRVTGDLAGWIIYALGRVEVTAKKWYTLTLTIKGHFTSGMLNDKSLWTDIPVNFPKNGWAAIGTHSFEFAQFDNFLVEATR
Summary of the method: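 Live 145M-Twi cells (Twitcher mouse brain-derived, GALC-null) stably expressing human GALC-G270D, with a wild-type GALC line, were compound-treated. Residual GALC activity was then read as fluorescence from 0.1 mM final HMU-β-gal at pH 5.2; higher signal means activation.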
Note: 0% is about no effect; nearly all actives have a fitted effect of over 65% in size.

activation, inactive:
CCOC(=O)c1c(NC(=O)COc2ccc(CC)cc2)sc2c1CCCC2 5.93%
COc1cc(OC)cc(C(=O)Nc2ccc(-c3nc4ccccc4s3)c(C)c2)c1 -10.1%
CN1CCN(C(=O)Cn2c(-c3cccs3)cc3ccccc32)CC1 -5.51%
Cc1ccc(N2C(=O)CS(=O)(=O)C23C(=O)N(Cc2ccccc2C)c2ccccc23)cc1Cl (stereo unspecified) -25.5%
COc1ccc(NC(=O)Cn2nc(-c3ccccc3)c3cnc4ccc(C)cc4c32)cc1 -0.459%
Cc1ccc2c(=O)c(C(=O)c3ccccc3)cn(CC(=O)Nc3ccc(C)c(Cl)c3)c2n1 -9.16%
CCCNC(=O)c1ccc2c(c1)nc(C)n2-c1cccc(C)c1 -14%
Cc1nn(C)c2c1c(C(F)(F)F)cc(=O)n2C(C)C(=O)NCCC(C)C (stereo unspecified) -14.2%
Cc1ccc(-c2nc(C(=O)N3CCN(c4ccccc4)CC3)c3n2CCCCC3)cc1 -7.8%
CCC(Sc1ncccc1C(=O)Oc1ccccc1Cl)C(=O)Nc1ccccc1OC (stereo unspecified) -1.84%
COc1ccc(NC(=O)C(NC(=O)C2CCC(C)CC2)C(C)C)cc1 (stereo unspecified) -12.9%
Cc1ccc(C)c(CSc2nnc3[nH]c(=O)cc(-c4ccccc4)n23)c1 -3.44%
COc1ccc(CNC(=O)C2CCN(S(=O)(=O)c3ccc4c(c3)CCCN4C(C)=O)CC2)cc1 -17.3%
CCc1ccccc1NC(=O)c1sc(-n2nc(C)c(Cc3ccccc3)c2C)nc1C 0.922%
COCc1cc(C)nc2sc3c(=O)n(-c4ccccc4C(F)(F)F)nnc3c12 -11.3%
COCCCn1c(=O)c2sccc2n2c(CCCC(=O)NC3CCC(C)CC3)nnc12 (stereo unspecified) -0.652%
Cc1cccc(NC(=O)C2CCN(S(=O)(=O)c3ccc4c(c3)CCCN4C(=O)C3CCC3)CC2)c1 -7.97%
Cc1cccc(C)c1-n1ncc(C(=O)N2CCN(c3ncccn3)CC2)c1C1CCN(C(=O)OC(C)(C)C)CC1 9.04%
CCCn1cc(S(=O)(=O)c2cc(C)ccc2C)c(=O)c2cc(F)c(N3CCN(CC)CC3)cc21 -22.3%
CCN1CCN(Cc2c(O)ccc3c(=O)c(Oc4ccccc4C(C)C)c(C(F)(F)F)oc23)CC1 -5%
Cc1ccc(NC(=O)CSc2nc3ccc(NC(=O)CCc4ccccc4)cc3s2)cc1 -7.9%
CCCN1CCN(CCCNC(=O)Cn2nc(C)n3c(cc4c(OC)cccc43)c2=O)CC1 -16.7%
COc1cc(NC(=O)CSc2nc(-c3ccc(C(C)C)cc3)no2)cc(OC)c1 -10.4%
COc1ccc(C(=O)N(Cc2ccc(N(C)C)cc2)CC2CCCO2)cc1 (stereo unspecified) -5.46%
COc1ccc(NC(=O)CSc2cn(CCNC(=O)c3c(F)cccc3F)c3ccccc23)cc1 -20.3%
CCC(C)n1c(=N)c(C(=O)NC2CCCCC2)cc2c(=O)n3ccccc3nc21 (stereo unspecified) -13%
CC(=O)Nc1ccc2nc(NC(=O)CS(=O)(=O)c3ccc(C)cc3)sc2c1 -7.21%
Cc1ccc(C)c(N2CCN(S(=O)(=O)c3cn(C)c(C)n3)CC2)c1 -4.48%
COc1ccc(C2=Nc3ccc(OC(F)(F)F)cc3NC(c3cccnc3)=N2)cc1 -5.66%
Cc1ccc(CNC(=O)c2cc3ccc4cccnc4c3[nH]2)cc1 -17.3%
Cc1ccccc1CNC(=O)c1ccc2nc(C(C)C)oc2c1 -10.9%
COc1cc(Cl)c(C)cc1NC(c1ccccc1)c1nnc(-c2ccccc2Cl)o1 (stereo unspecified) -17.2%
COc1ccc(-c2noc(-c3ccc(NC4CCCC4)c([N+](=O)[O-])c3)n2)cc1OC -7.77%
Cc1ccc(NC(=O)Cn2cnc3c2c(=O)n(C)c(=O)n3C)cc1C -9.62%
CCN(C(=O)Cn1c(=O)n(Cc2ccccc2)c(=O)c2c1c1cc(OC)ccc1n2C)c1ccccc1 -1.67%
O=C(c1cccc(Cl)c1)N1c2ncnn2C2(CCCCC2)[C@@H]2CCCC[C@@H]21 -8.06%
Cc1ccc(Cl)cc1NC(=O)CCc1c(C)nc2c3cccnc3nn2c1C 4.79%
Cc1ccc2c(=O)cc(C(=O)Nc3sc4c(c3C(=O)NCC3CCCO3)CCCC4)oc2c1C (stereo unspecified) -2.59%
CC(C)(C)OC(=O)N1CCC(c2c(C(=O)NCCN3CCOCC3)cnn2-c2ccc(F)cc2)CC1 -8.29%
Cc1ccc2c(c1)N(C(=O)N1CCC(C(=O)NCCc3ccccc3)CC1)CC(C)O2 (stereo unspecified) -24.3%
COc1ccc(-c2ccc3c(N)c(C(=O)NCc4ccc(C)cc4)sc3n2)cc1 10.6%
COc1ccc(N2Cc3cccc(C(=O)Nc4ccc(Cl)cc4)c3C2=O)cc1 13.1%
COc1ccc(C)cc1NC(=O)C(Cc1ccccc1)NS(=O)(=O)c1ccc(Br)s1 (stereo unspecified) 2.38%
O=C(COc1ccc(F)cc1)Nc1nnc(SCc2cc(=O)n3ccccc3n2)s1 -24.3%
CCOc1ccc(-c2nonc2NC(=O)c2oc3cc(C)ccc3c2C)cc1OCC -20.3%
CCOC(=O)C1CCCN(C(=O)c2ccc3c(c2)sc2nc(-c4ccc(C)cc4C)cn23)C1 (stereo unspecified) -17.3%
Cc1ccc(CN(Cc2ccco2)C(=O)COc2cccc(C)c2C)o1 -6.54%
O=C(Nc1nc2n(n1)C(c1ccccc1)C=C(c1ccc(Cl)cc1)N2)c1ccco1 (stereo unspecified) -9.83%
COc1cccc(Cn2c(SCc3ccc(C(=O)N4CCCCC4)cc3)nc3ccncc32)c1 -2.81%
Cc1cc(Cl)ccc1NC(=O)CN1C(=O)COc2ccc(S(=O)(=O)Nc3ccccc3)cc21 -9.48%
CCOC(=O)c1cnc2c(ccc3ccccc32)c1Nc1cccc(Cl)c1 -20.3%
COc1ccc(CCNC(=O)c2cnc3sc(N4CCOCC4)nn3c2=O)cc1 -11.5%
CCOc1ccc(CNC(=O)C2CCN(c3nc4ccccc4nc3C(F)(F)F)CC2)cc1OC -12.9%
CCc1c(C)sc2c1CCN(Cc1ccccc1C#N)C2c1ccccc1 (stereo unspecified) -17.9%
CC1CCN(c2oc(-c3cccs3)nc2S(=O)(=O)c2ccccc2)CC1 -13.9%
COc1ccc(-n2cc(-c3ccc4c(c3)OCO4)n(CC(=O)Nc3cc(Cl)ccc3C)c2=O)cc1 -22.6%
COc1ccc(-n2nc3ccc(NC(=O)c4cccc(OCCC(C)C)c4)cc3n2)cc1 -19.4%
Cc1nn(C)c2c1c(-c1ccccc1)cc(=O)n2Cc1ccc(F)cc1 -14.2%
COc1ccc(-c2nc3sc(CCNC(=O)Cc4ccccc4)c(C)n3n2)cc1 -14.1%
COc1ccc(C2=NS(=O)(=O)N(C)C(C(=O)NC(C)c3ccccc3)=C2)cc1 (stereo unspecified) -9.44%
COc1ccc(C)cc1NC(=O)c1nnn(Cc2cccc(Br)c2)c1N -17.8%
COc1ccc(CNC(=O)c2cnc(N3CCCC3)nc2C)c(OC)c1 -16.5%
COc1ccccc1CNC(=O)C(NS(=O)(=O)c1ccc2c(c1)CCN2C(C)=O)C(C)C (stereo unspecified) -11.3%
Cc1ccc(NC(=O)CCC(=O)N2Cc3ccccc3Oc3ncccc32)cc1Cl -11.5%
CCOC(=O)c1cnc2ccc(OC)cc2c1Nc1ccc(OCc2ccccc2Cl)cc1 -21.9%
CCc1ccc(C(=O)c2cn(CC(=O)Nc3cc(OC)ccc3OC)c3ccc(Cl)cc3c2=O)cc1 -10.1%
CCCS(=O)(=O)N1CCC(n2c(C)nc3cccnc32)CC1 -17.7%
CCN(CC)S(=O)(=O)c1ccc2c(c1)N(CC(=O)NCCCN1CCN(c3ccc(OC)cc3)CC1)C(=O)CO2 -7.75%
Cc1ccc2oc(C(=O)Nc3ccc(S(=O)(=O)N4CCCCC4C)cc3)cc(=O)c2c1 (stereo unspecified) -10.5%
CCOC(=O)c1cc(-c2ccccc2)n(CCC(=O)NCCc2ccccc2)c1C -14.2%
CCN(C(=O)CSc1nc2ccccc2n1CC(=O)N(C)C1CCCCC1)c1ccccc1 -5.11%
CCC1CCCCN1C(=O)CSc1nnc(-c2ccc(OC)c(OC)c2)o1 (stereo unspecified) -12.3%
Cc1ccc2nc(-c3cccs3)c(Nc3ccc4c(c3)OCCO4)n2c1 -8.12%
O=C(Cn1cc(S(=O)(=O)N2CCCC2)c(S(=O)(=O)N2CCCC2)c1)Nc1ccc(F)cc1 -17.6%
Cc1cc(-c2ccccc2)nnc1NCCN1CCOCC1 -2.59%
CCOC(=O)c1ccc(NC(=O)N2CC3CCCN3c3ccccc32)cc1 (stereo unspecified) -13.3%
CCOC(=O)N1CCN(Cc2nc3cc(NC(=O)c4ccccc4Cl)ccc3n2C(C)C)CC1 19.4%
COc1ccccc1NC(=O)CSc1cn(CC(=O)N2CCCC2)c2ccccc12 -21.2%
CC(=O)c1cccc(NC(=O)CCc2c(C)nc3nc(CN)nn3c2C)c1 -12.3%
CC(=O)N1CCc2c(sc3c2c(=O)n(-c2ccccc2Cl)c(=O)n3Cc2cccc(C)c2)C1 -19.8%
CN(C)c1ncc(C(=O)NCc2ccc(Cl)cc2)cn1 -13.2%
COc1ccccc1NC(=O)C1=C(C)Nc2nc3ccccc3n2C1c1ccccc1Cl (stereo unspecified) -7.42%
O=C(Cn1cc(C(=O)c2ccco2)c2ccccc21)Nc1ccccc1 -19.5%
CCOc1ccc(N2CC(C)Cn3c2nc2c3c(=O)n(Cc3c(F)cccc3Cl)c(=O)n2C)cc1 (stereo unspecified) -9.15%
CCOc1ccc(NC(=O)c2ccc(F)c(S(=O)(=O)N(Cc3ccc(C(=O)OC)cc3)Cc3ccc(OC)c(OC)c3)c2)cc1 -9.3%
COc1ccc(Cl)cc1Nc1ccc2cc(S(=O)(=O)N3CCCCC3)ccc2n1 -15.2%
CCC(=O)N1CCc2cc(S(=O)(=O)NCc3ccc(C)cc3)ccc21 -28.7%
Cc1cc2n(n1)CCCN2C(=O)Nc1ccc(F)c(Cl)c1 -4.21%
CCOCCc1nnc(NC(=O)C(=O)c2cc(C)n(-c3ccc(Cl)cc3)c2C)s1 -12%
Cc1cc(OCC(=O)N2CCC(c3nc4ccccc4s3)CC2)ccc1Cl -16.1%
O=C(CSc1ncc(-c2ccccc2)[nH]1)Nc1cccc(Br)c1 -8.98%
NC(N)=Nc1nc(CSCC/C(N)=N/S(N)(=O)=O)cs1 -16%
COc1cc2nc(NC(=O)c3ccc(S(=O)(=O)N4CCc5ccccc54)cc3)sc2cc1OC -27.6%
COc1cccc(-n2c(C)nc3cc(C(=O)O)ccc32)c1 -20.1%
CC1CCCCN1C(=O)c1ccc2c(c1)N(Cc1ccc(F)cc1)C(=O)c1ccccc1S2(=O)=O (stereo unspecified) -1.94%
CCN(CCCNC(=O)c1cc2c(=O)n(CC)c3ccccc3c2s1)Cc1ccccc1 -3.84%

From PubChem BioAssay AID1159614 (National Center for Advancing Translational Sciences (NCATS), 2016)
